According to PubChem BioAssay AID1159614 (National Center for Advancing Translational Sciences (NCATS), 2016):
Out of some 45,000 compounds screened, about 65 (0.1%) were called active. Calls come from the whole dose curve; as a rule, active = well fitted activation curve with a large enough effect; inconclusive = small, poorly fitted or top-dose-only effect; inactive = no such curve, though single readings can be large or run the other way. Some of the results follow.

Molecular target: Galactocerebrosidase (Homo sapiens) (UniProt P54803)
Assay: A Novel Cell-Based Assay to Identify Small Molecules for B -Galactocerebrosidase; note: 0% is about no effect; nearly all actives have a fitted effect of over 65% in size
Settings: 145M-Twi-hGALC-G270D cells (Twitcher mouse brain line with human GALC G270D), HMU-beta-Gal fluorescence, 48 h; series mostly up to 57.5 µM; activation: at the top concentration
In short: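 Mutant human GALC (G270D), stably expressed in a Twitcher mouse brain cell line lacking endogenous GALC, is measured in live-treated cells via 6-hexadecanoylamino-4-methylumbelliferyl-β-galactoside hydrolysis (0.1 mM final, pH 5.2) with fluorescent detection.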

Chain of UniProt P54803 (P54803 whole entry, looked up): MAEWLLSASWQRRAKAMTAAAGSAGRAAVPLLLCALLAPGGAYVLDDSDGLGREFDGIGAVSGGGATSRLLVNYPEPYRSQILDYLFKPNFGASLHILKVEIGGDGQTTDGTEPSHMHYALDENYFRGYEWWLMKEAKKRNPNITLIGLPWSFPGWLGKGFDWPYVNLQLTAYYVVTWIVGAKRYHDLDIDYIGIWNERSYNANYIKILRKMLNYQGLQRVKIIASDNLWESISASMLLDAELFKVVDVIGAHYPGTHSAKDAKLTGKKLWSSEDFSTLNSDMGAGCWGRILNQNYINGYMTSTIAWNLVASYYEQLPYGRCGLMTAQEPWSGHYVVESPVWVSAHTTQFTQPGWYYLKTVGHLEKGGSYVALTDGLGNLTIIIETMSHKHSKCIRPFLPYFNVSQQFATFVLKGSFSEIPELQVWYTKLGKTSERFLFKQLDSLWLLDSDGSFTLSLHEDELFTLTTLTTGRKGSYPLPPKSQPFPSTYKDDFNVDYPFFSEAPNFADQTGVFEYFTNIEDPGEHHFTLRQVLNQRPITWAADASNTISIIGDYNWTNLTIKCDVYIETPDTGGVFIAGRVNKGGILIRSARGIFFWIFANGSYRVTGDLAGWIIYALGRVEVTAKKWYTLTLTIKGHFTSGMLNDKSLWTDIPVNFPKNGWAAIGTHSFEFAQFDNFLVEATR

activation, inactive:
CCOC(=O)CNC(=O)N1CCN(S(=O)(=O)c2ccc3c(ccn3C)c2)CC1 -2.84%, COc1ccc(CC(=O)N2CC(=O)Nc3ccc(F)cc3C2c2ccccc2)cc1 (stereo not given) -24.9%, COC(=O)c1ccccc1NC(=O)c1ccc(CN2CC(=O)N3CCCCC3C2=O)cc1 (stereo not given) -14.9%, COc1ccc(C2=NC(c3ccccc3)=Nc3ccc(C)cc3N2)cc1 -30.5%, CCc1ccc(CNC(=O)C2CCN(c3nn4cc(-c5ccc(OC)cc5)nc4s3)CC2)cc1 -10.8%, CCC(C)NC(=O)c1c2c(nc3ccccc13)C(=O)N(C1CCCCC1)C2 (stereo not given) -0.311%, O=C(CSc1n[nH]c(-c2ccc(F)cc2)n1)N1CCN(c2ccc(F)cc2)CC1 -13.5%, CCOC(=O)c1cc(S(=O)(=O)Nc2ccccc2)[nH]n1 -16.2%, COc1ccccc1N1CCN(CC(O)COc2ccc(Cl)c(C)c2)CC1 (stereo not given) -13.9%, COc1ccc(NC(=O)CSc2nnc(-c3ccncc3)n2-c2ccccc2)cc1 -7.11%, CN1CCN(C(=O)c2ccc3c(c2)N(Cc2ccc(F)cc2)C(=O)c2ccccc2S3(=O)=O)CC1 -9.41%, Cc1ccc(CNC(=O)C2CCN(S(=O)(=O)N3CCCCC3)CC2)cc1 -0.907%, Cc1ccc(Cn2nnc3c(=O)[nH]c(C4CCN(C(=O)Cc5ccccc5F)CC4)nc32)cc1 -8.61%, CC(=O)c1c(C)oc2ccc(N(C(=O)Oc3ccccc3)S(=O)(=O)c3ccc(Cl)cc3)cc12 -17.9%, CCOc1ccc(CNC(=O)c2ccc3oc(=O)n(Cc4ccccc4)c3c2)cc1 -5.21%, COc1ccc(CCNC(=O)CCc2c(C)nc3c4c(C)cc(C)nc4nn3c2C)cc1OC -12%, CCc1cccc(NS(=O)(=O)c2c(C)[nH]c(=O)[nH]c2=O)c1 -8.91%, COc1cccc2c1cc1c(=O)n(CC(=O)N3CCN(c4cccc(C)c4C)CC3)nc(C)n12 -14.5%, CCOc1ccccc1Nc1nc2ccccc2c2nncn12 -9.26%, COc1ccc(OCC(=O)Nc2ccc(-c3nc4cc(C)cc(C)c4o3)cc2)cc1 -32.7%, CC1CCN(S(=O)(=O)c2ccc3c(c2)CCN3C(=O)Nc2ccccc2Br)CC1 1.6%, Fc1ccc(N2CCN(c3nc4ccccc4c4nc(-c5ccccc5)nn34)CC2)cc1 -8.8%, COc1ccc2c(c1)cc(CNc1ccc(OC)c(OC)c1)c(=O)n2CC(=O)Nc1ccccc1C -21.4%, COc1ccc2c(c1)c1c(c(=O)n(CCc3ccccc3)c(=O)n1Cc1cccc(Cl)c1)n2C -5.84%, COc1ccc(CC(=O)Nc2nc3c(s2)CC(C)CC3)cc1 (stereo not given) -13.3%, Cc1ccc(NC(=O)C2CCCN(S(=O)(=O)c3ccc4[nH]c(=O)ccc4c3)C2)cc1Cl (stereo not given) 3.39%, CCOc1ccccc1Nc1ncnc2c1cnn2-c1ccc(C)cc1 -0.568%, COc1cc(NC(=O)c2ccc(C)c(Cl)c2)ccc1NC(=O)c1cc2ccccc2o1 -10%, CCCn1cc(S(=O)(=O)c2ccc(C)cc2)c(=O)c2cc(F)c(N3CCCC3)cc21 -27%, CC1CN(C(=O)N2CCC(C(=O)NCCCc3ccccc3)CC2)c2cc(Cl)ccc2O1 (stereo not given) -7.66%, O=C(NCc1cccc(Cl)c1)c1c2c(nc3ccccc13)C(=O)N(C1CCCCC1)C2 -15.9%, CC(=O)Nc1cccc(NC(=O)c2cc3c(=O)n4cccc(C)c4nc3n2C)c1 4.63%, COc1nc(C)nc(Cl)c1NC1=NCCN1 -16.1%, CCCCOc1ccc(CNC(=O)c2cccc(NC(=O)N3CCSc4ncccc43)c2)cc1 -11.5%, Cc1c(C(=O)NCc2ccc(Cl)cc2)oc2ccc3c(c12)C(=O)CC(C)(C)O3 -10.3%, Cc1ccc(CNC(=O)CSc2ncc3c(n2)-c2cc(Cl)ccc2N(C)S3(=O)=O)cc1 -14.3%, COc1cc(NC(=O)Cn2c(=O)n(CC3CCC(C(=O)NCCc4ccccc4)CC3)c(=O)c3ccccc32)cc(OC)c1 (stereo not given) 8.28%, CO/N=C(/C(=O)N[C@@H]1C(=O)N2C(C(=O)OCOC(=O)C(C)(C)C)=C(C)CS[C@H]12)c1csc(N)n1 -13.5%, COc1cccc(Cn2cc(C(=O)c3ccccc3)c(=O)c3cc4c(cc32)OCO4)c1 -16.1%, OCCCc1ccccc1 -16.1%, COc1ccc(-n2ncc3c(NCCCOC(C)C)ncnc32)cc1 -10.2%, O=C(CCc1nc(CN2CCN(S(=O)(=O)c3ccc(Br)cc3)CC2)no1)N1CCCCC1 5.73%, CCOc1ccccc1C1CC(=O)Nc2c1c(=O)n(C)c1ncnn21 (stereo not given) -17.7%, CCCCNC(=O)C1CCCN(S(=O)(=O)CCC)C1 (stereo not given) -16.3%, CCCCN(CC)CCCNC(=O)c1c(C)oc2ncnc(N3CCOCC3)c12 -0.449%, COc1ccc(-n2c(C)nc3c(cnn3-c3ccc(F)cc3)c2=O)cc1 -13.9%, CCc1nn2c(=O)cc(COC(=O)c3cccc(NC(=O)CCc4ccccc4)c3)nc2s1 -17.9%, CCc1ccc(C(=O)c2cn(CC(=O)Nc3ccc4c(c3)OCCO4)c3ccc(F)cc3c2=O)cc1 1.56%, Cc1ccc(NCc2cccn2-c2nnc(N3CCC(C(=O)NCCc4ccc(Cl)cc4)CC3)s2)cc1 -6.39%, CCc1nn(CC(=O)NCCc2ccc(OC)cc2OC)c(=O)c2cc3occc3n12 -2.88%, COc1cc2c(=O)n(CCC(=O)NCC3CCCO3)c(=O)n(CC(=O)Nc3ccccc3C)c2cc1OC (stereo not given) -4.62%, CCCCc1ccc(-n2nc3cc(C)c(NC(=O)c4ccc(C#N)cc4F)cc3n2)cc1 -11.7%, COc1ccccc1CNC(=O)C1CCN(c2nc3ccc(Cl)cc3[nH]2)CC1 4.68%, CCn1cc(/C=C(\NC(=O)c2ccc(OC)cc2)C(=O)NCCCn2ccnc2)c2ccccc21 -23.7%, COc1cc2nc(N3CCN(C(=O)c4ccco4)CC3)nc(N)c2cc1OC -6.85% [at 23.8 µM], NCCS(=O)(=O)O -34.8%, COc1ccccc1NC(=O)Cn1c(SCC(=O)Nc2ccc(F)cc2)nc2ccccc21 -12%, Cc1nc2ccn(Cc3ccccc3)c(=O)c2cc1C(=O)N1CCN(c2ccc(F)cc2)CC1 6.53%, CC(Sc1nnc2ccc3ccccc3n12)C(=O)Nc1ccc(Cl)cc1 (stereo not given) -9.39%, CCCCS(=O)(=O)N[C@@H](Cc1ccc(OCCCCC2CCNCC2)cc1)C(=O)O -9.61%, CCOC(=O)c1cnc2cc(-c3ccc(OCC)cc3)nn2c1-c1ccccc1 -13.1%, COCCc1nn2c(=O)cc(COC(=O)C(c3ccccc3)c3ccccc3)nc2s1 -18.6%, Cc1cc(NC(=O)n2ncc3c(C)cccc32)ccc1Br -4%, COc1ccc(C)cc1NC(=O)C(=O)NCC(c1cccnc1)N1CCc2ccccc21 (stereo not given) -9.36%, COc1ccc(NC(=O)CSc2nccn2Cc2ccc3c(c2)OCO3)cc1 -12.6%, CCn1cc(C(=O)O)c(=O)c2cnc(N3CCNCC3)nc21 -12.9%, O=C1CC(c2ccccc2)Sc2ccccc2N1Cc1ccc(F)cc1 (stereo not given) -7.04%, Cc1ccc(-n2c3c(cc(C(=O)Nc4ccccc4C(N)=O)c2=O)C(=O)CC(C)(C)C3)cc1 -1.4%, CCOc1ccccc1NC(=O)c1c(NC(=O)COc2ccccc2)sc2c1CCCC2 -1.2%, Cc1cc(C)c(NC(=O)CSc2ccc(-c3ccccn3)nn2)c(C)c1 -2.52%, CN(C)CCNC(=O)CN1C(=O)COc2ccc(S(=O)(=O)N3CCCC3)cc21 -13.8%, COc1ccc(C2=Nc3ccccc3NC(c3cccs3)=N2)cc1 -25.6%, COc1cccc(NC(=O)CCC(=O)N2Cc3ccccc3Oc3ncccc32)c1 -17.8%, CCNS(=O)(=O)c1ccc(NC(=O)CSc2nc(-c3ccco3)cc(C(F)(F)F)n2)cc1 -0.0273%, COc1ccccc1CNC(=O)c1c[nH]c2ccc(S(=O)(=O)Nc3cc(C)cc(C)c3)cc2c1=O -3.59%, CCCOc1ccc(CNC(=O)CCCn2ncn3c(cc4sc(CC)cc43)c2=O)cc1 -9.37%, Cc1cccc(Nc2nnc(-c3ccc(C)c(S(=O)(=O)N4CCCCC4)c3)c3ccccc23)c1 -20.7%, CC(C)OC(=O)c1cccc(NC(=O)Cn2nnc3sc4c(c3c2=O)CCCC4)c1 -1.58%, Cc1ccc(-n2cc(-c3ccccc3)c3c(N4CCCCC4)ncnc32)cc1 -13.2%, Cc1ccc(CNC(=O)CSc2nc3ccsc3c(=O)n2Cc2ccccc2F)cc1 23.8%, CCN(CC)c1ccc(NC(=O)c2cccn2-c2nnc(N3CCCCC3)s2)c(C)c1 -18.8%, Cc1ccc(S(=O)(=O)N2CCN(C(=O)c3cc(-c4ccc(Br)cc4)n[nH]3)CC2)c(C)c1 7.09%, Cc1ccc(NC(=O)C(Cc2ccccc2)NS(=O)(=O)c2ccc3c(c2)c(=O)n(C)c(=O)n3C)c(C)c1 (stereo not given) -11.7%, Cc1c(Cl)cccc1-n1ncc(C(=O)N2CCN(c3ncccn3)CC2)c1C1CCN(C(=O)OC(C)(C)C)CC1 15.1%, CCN(C(=O)c1cn(CC)c(=O)c2cc(OC)c(OC)cc12)c1ccccc1F -1.81%, Cc1cccc(NC(=O)C(=O)NCCc2csc(-c3ccc(F)cc3)n2)c1C -21.8%, COc1ccc(CCC(=O)NC2CC(=O)N(c3ccc(OC)cc3)C2)cc1 (stereo not given) 6.07%, Cc1cc(C)c2c(=O)cc(CSc3n[nH]c(C)n3)[nH]c2c1 -3.36%, CCC(C(=O)Nc1cc(F)ccc1F)n1nc(C)c2c(C)n(-c3ccc(C)cc3)nc2c1=O (stereo not given) -9.1%, COc1ccc(NC(=O)CN2C(=O)c3cccnc3Sc3ccccc32)cc1OC -12.8%, CC1=C(C(=O)Nc2cc(Cl)ccc2C)C(c2cccs2)n2ncnc2N1 (stereo not given) -22.4%, Cc1cccc(N2CCN(C(=O)c3ccc(Nc4nc5ccccc5n5nnnc45)cc3)CC2)c1C -13.5%, CCOC(=O)c1ccc(NC(=O)C2=C(C)Nc3nc(CCCO)nn3C2c2ccc(OC)cc2)cc1 (stereo not given) -17.8%, Cc1cc(N2CCCCC2)nc2ccc(NC(=O)CCC(=O)N3CCN(c4ccccc4)CC3)cc12 -26.5%, COc1cc(C(=O)Nc2ccccc2-c2nc(-c3ccc(C)cc3)no2)cc(OC)c1OC -9.12%
